The source gives no read counts; variants with many changes may rest on few reads.
B1: CPEB3 Ribozyme (parent)
chain: UAACAGGGGGCCACAGCAGAAGCGUUCACGUCGCAGCCCCUGUCAGAUUCUGGUGAAUCUGCGAAUUCUGCUGUAUAUCUC

Variants of: B1
Assay: self-cleavage, relative activity (ratio to wild type); higher = more cleavage; in vitro, sequencing
Summary of the method: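 Relative activity was defined as the cleaved/total read fraction for a variant divided by the same fraction for the unmutated ribozyme. CPEB3 self-cleaving ribozyme libraries were made by rounds of error-prone PCR, barcoded, and transcribed in vitro with T7 RNA polymerase for 5 hours at 37°C, and cleavage ran through transcription plus a 15 min DNase I step before EDTA. Illumina sequencing of template-switched reverse transcripts gave the reads, and DNA sequencing mapped the barcodes. Averages come from three batches, using variants with at least 5 reads.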

Variant	self-cleavage
G7U A35G A45G U80C	0.4
G7U A35G U48C U51A U54G	0.06
G7U A35G U60C	0.06
G7U A35U C50A A57G U69A	0.05
G7U A35U U49C	0.33
G7U A45C A56U U60A U69C G70A A77G	0.04
G7U A47G U80C	0.21
G7U A56G A64G	0.21
G7U C11A U66A	0.08
G7U C11G U41C U49A U58C	0.05
G7U C11G U41C U72G	0.05
G7U C12A A20G A56G U76C U78C	0.17
G7U C12U A18G A21G A28G A64G	0.04
G7U C14U A20G A35G A56G	0.24
G7U C17U U43A U48C A64G	0.06
G7U C17U U67A	0.21
G7U C23U G30U A56G	0.1
G7U C23U U25A U72A	0.07
G7U C23U U41A	0.16
G7U C23U U41C U60A U67C	0.04
G7U C23U U67C	0.08

Variant	self-cleavage
G7U C27A A47U U48C U74C	0.07
G7U C34G U58C A65U	0.06
G7U C59A U80C	0.2
G7U G8A A15G A35U C40G A45G U54A	0.24
G7U G8A A28G A45U U58C	0.06
G7U G9C U25C U41C A47U U60A	0.06
G7U G9U C23G U25A U31G U41C	0.04
G7U G10A A15U A18G G19C C23U U25C	0.23
G7U G16A A18G A45U U51A	0.07
G7U G19C A21G U60C U67A	0.1
G7U G22C U26A U41A A57G	0.13
G7U G22C U31A U41A G73U	0.17
G7U G24A U80A	0.04
G7U G36A U60C	0.08
G7U G46U A64G	0.06
G7U G46U U54C A56G U72A	0.08
G7U U25A U26C A77G U78C	0.14
G7U U25A U43C U49C U60C U72G A77U	0.05
G7U U25C A28U U78A	0.04
G7U U25C G30C A64U	0.21
G7U U25C U26G A35G U60A	0.27

Variant	self-cleavage
G7U U25C U58C U60A U66C	0.07
G7U U26A A64G	0.18
G7U U26A U48C A57G	0.14
G7U U26A U49C U58C	0.14
G7U U26C C29U U51A	0.07
G7U U26C U31C U78C	0.19
G7U U26C U67A U80C	0.06
G7U U31A G36A	0.07
G7U U31C U41C U67C	0.36
G7U U31G C32G U43A U54C U66C	0.06
G7U U31G U54G	0.15
G7U U41A A47U	0.17
G7U U41C C44G A45U A56G U66C	0.05
G7U U41C U51C U76C	0.04
G7U U41C U76C C81U	0.06
G7U U48C U49C U60A U78C	0.13
G7U U49C U54A	0.16
G7U U51A U54C	0.24
G7U U51C A64G	0.05
G7U U51C U80C	0.19
G7U U54A U72G	0.08

Variant	self-cleavage
G7U U60A A64G	0.22
G7U U60C A65G U74C	0.05
G7U U60C A77U	0.16
G7U U60C U69A	0.35
G7U U60C U72C U80A	0.06
G7U U60C U74A	0.22
G7U U66C U72C	0.14
G7U U69A U76C	0.08
G7U U72A U80A	0.22
G7U U74C A75U	0.08
G8A A13C A15C U51C U72C	0.23
G8A A13C U26C U67C C71U	0.06
G8A A13G A15G A35U U51C A77G	0.14
G8A A13G A20G U26A U54C U78C	0.22
G8A A13G A21U U26C U48C A56G A64U	0.07
G8A A13G C23G C37U	0.12
G8A A13G G19A U31A G52A U76A A77U	0.04
G8A A13G G52U U67A U76C U78C	0.03
G8A A13G U26A A28G G33U U48C	0.04
G8A A13G U43A	0.14
